About 220 (0.56%) of roughly 39,000 compounds showed activity. The list shows a part of the results.
What follows are compounds tested on Escherichia coli K-12 BW25113 (assay: relative growth (OD600 normalised to plate interquartile mean) (fraction); higher = less growth inhibition, active = 0.2 or less). Details: 50 µM; LB; incubation time: overnight (16-24 h).
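Note: static incubation at 37 °C against the wild-type strain, values averaged over two biological replicates.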

Row | SMILES | relative growth
1 | C[C@H](CO)N1C[C@H](C)[C@@H](CN(C)C(=O)c2ccccc2)OCCCC[C@H](C)Oc2ccc(NS(=O)(=O)c3ccc(Cl)cc3)cc2C1=O | inactive: 1.01
2 | O=C(C[C@@H]1CC[C@@H]2[C@H](COC[C@H](O)CN2C(=O)c2ccccc2F)O1)N1CCN(c2ccccc2)CC1 | inactive: 0.932
3 | C[C@@H]1CCCCO[C@@H](CN(C)CC2CCCCC2)[C@@H](C)CN([C@H](C)CO)C(=O)c2cc(NC(=O)c3ccccc3)ccc2O1 | inactive: 0.979
4 | C[C@H]1CCCCO[C@H](CN(C)C)[C@@H](C)CN([C@@H](C)CO)C(=O)c2cc(NC(=O)CCCN(C)C)ccc2O1 | inactive: 0.991
5 | O=C(O)[C@@H]1CC(=O)N(c2ccc3c(c2)OCO3)C1 | inactive: 1.03
6 | Cn1cc(CN2CCC(C(=O)N[C@@H](c3ccc(F)cc3)c3ccc4ccccc4n3)CC2)c2ccccc21 | inactive: 0.963
7 | O=C(C[C@H]1C=C[C@@H](NC(=O)CN2CCOCC2)[C@H](CO)O1)NCCc1ccccc1 | inactive: 0.999
8 | C[C@H](O)C#Cc1ccc2c(c1)O[C@H](CN(C)C(=O)c1ccncc1)[C@@H](C)CN([C@H](C)CO)S2(=O)=O | inactive: 0.999
9 | Cc1ccc(S(=O)(=O)Nc2ccc3c(c2)C(=O)N([C@H](C)CO)C[C@@H](C)[C@@H](CN(C)Cc2ccc(C(=O)O)cc2)OCCCC[C@@H](C)O3)cc1 | inactive: 0.993
10 | Cc1cc(O)c(C=O)c(O)c1C(=O)O | inactive: 1.07
11 | O=C1O[C@H](c2ccccc2)[C@H](c2ccccc2)N2[C@H]1[C@@H](C(=O)Nc1nc3ccccc3s1)[C@]1(C(=O)Nc3ccc(C#CCCO)cc31)[C@H]2c1ccc(O)cc1 | inactive: 1.04
12 | CC(C)NC(=O)N(C)C[C@H]1Oc2c(NC(=O)NC3CCCCC3)cccc2C(=O)N([C@H](C)CO)C[C@H]1C | inactive: 0.972
13 | Cc1ccc(S(=O)(=O)N(C)C[C@H]2Oc3ccc(NC(=O)C4CC4)cc3CC(=O)N([C@@H](C)CO)C[C@@H]2C)cc1 | inactive: 0.998
14 | Cc1ccc(S(=O)(=O)Nc2cccc3c2O[C@H](CN(C)C(=O)NC(C)C)[C@@H](C)CN([C@@H](C)CO)C3=O)cc1 | inactive: 0.998
15 | CCN(CC)S(=O)(=O)c1ccc(CN2C(=O)[C@]3(CC(=O)N(CCOC)C3=O)c3cc(F)ccc32)cc1 | inactive: 1
16 | COc1ccccc1S(=O)(=O)N(C)C[C@H]1Oc2ncc(Br)cc2C(=O)N([C@@H](C)CO)C[C@H]1C | inactive: 0.973
17 | COc1ccc(NC(=O)N(C)C[C@@H]2Oc3c(NC(=O)C4CC4)cccc3C(=O)N([C@H](C)CO)C[C@H]2C)cc1 | inactive: 0.981
18 | CCCCOc1ccc(C(=O)C2=C(O)C(=O)N(Cc3cccnc3)[C@H]2c2ccc(O)c(OCC)c2)c(C)c1 | inactive: 1
19 | CCNC(=O)C[C@H]1CC[C@H]2[C@@H](COC[C@H](O)CN2C(=O)Nc2c(C)noc2C)O1 | inactive: 0.999
20 | CCCN(C)C[C@@H]1OCCCC[C@H](C)Oc2ccc(NC(=O)NC3CCCCC3)cc2C(=O)N([C@@H](C)CO)C[C@@H]1C | inactive: 1.01
21 | CC=Cc1ccc(OC)cc1 | inactive: 1.09

Row | SMILES | relative growth
22 | CN(C)C(=O)C[n+]1ccc(/C=N/O)cc1 | inactive: 1.04
23 | C[C@H](CO)N1C[C@H](C)[C@@H](CN(C)Cc2ccc(Cl)c(Cl)c2)OCCCC[C@H](C)Oc2ccc(NC(=O)Cc3ccccc3)cc2C1=O | inactive: 0.931
24 | CC(C)(C)S(=O)N1Cc2cc(C(=O)N[C@@H]3CCN(Cc4ccccc4)C3)nc(-c3cccc(-c4cccc(F)c4)c3)c2[C@@H]1CCO (stereo partly specified) | inactive: 1.01
25 | Nc1ncnc2c([C@@H]3N[C@H](CO)[C@@H](O)[C@H]3O)c[nH]c12 | inactive: 0.999
26 | C[C@@H]1CN([C@H](C)CO)C(=O)c2cc(C#CCN(C)C)cnc2O[C@@H]1CN(C)Cc1ccc2c(c1)OCO2 | inactive: 0.967
27 | COc1ccccc1-c1cccc(-c2nc(C(=O)N3CCCCC3)cc3c2[C@@H](CCO)N([S@](=O)C(C)(C)C)C3)c1 | inactive: 1.01
28 | COc1ccc(NC(=O)N(C)C[C@H]2OCCCC[C@@H](C)Oc3ccc(NC(=O)Cc4ccccc4)cc3C(=O)N([C@@H](C)CO)C[C@@H]2C)cc1 | inactive: 1.03
29 | COc1ccc(CN(C)C[C@@H]2OCCCC[C@H](C)Oc3ccc(NS(=O)(=O)c4ccc(C)cc4)cc3C(=O)N([C@@H](C)CO)C[C@H]2C)cc1 | inactive: 0.995
30 | COCC(=O)Nc1ccc2c(c1)OC[C@@H](C)N(Cc1cccc(F)c1)C[C@H](C)[C@H](OC)CN(C)C2=O | inactive: 1.01
31 | COc1ccc(CN(C)C[C@H]2Oc3c(NC(=O)c4cnccn4)cccc3C(=O)N([C@@H](C)CO)C[C@@H]2C)cc1 | inactive: 0.94
32 | O=C(Nc1cccc2cccnc12)[C@@H]1[C@H](c2ccc(Br)cc2)CN1C(=O)OCc1ccc([N+](=O)[O-])cc1 | inactive: 1.04
33 | CC(=N)NCCCC[C@H](N)C(=O)O | inactive: 0.988
34 | C[C@@H]1CN([C@@H](C)CO)S(=O)(=O)c2ccc(-c3ccncc3)cc2O[C@H]1CN(C)S(=O)(=O)c1ccccc1F | inactive: 0.975
35 | C[C@@H]1CN([C@@H](C)CO)C(=O)c2cccc(NC(=O)CCCCCC(=O)Nc3ccccc3N)c2O[C@H]1CN(C)Cc1ccc(Cl)c(Cl)c1 | inactive: 0.997
36 | COc1ccc(NC(=O)Nc2ccc3c(c2)CC(=O)N([C@@H](C)CO)C[C@H](C)[C@@H](CN(C)Cc2ccc(-c4ccccc4)cc2)O3)cc1 | inactive: 0.966
37 | Cc1noc(C)c1S(=O)(=O)N(C)C[C@H]1OCc2cnnn2CCCC(=O)N([C@H](C)CO)C[C@@H]1C | inactive: 1
38 | C[C@H](CO)N1C[C@H](C)[C@@H](CN(C)Cc2ccc(Oc3ccccc3)cc2)Oc2ccc(NC(=O)Nc3ccc(F)cc3)cc2C1=O | inactive: 0.964
39 | C[C@H](CO)N1C[C@H](C)[C@H](CN(C)C(=O)CN2CCOCC2)Oc2cc(/C=C/c3ccccc3)ccc2S1(=O)=O | inactive: 0.986
40 | O=C(C[C@H]1CC[C@H]2[C@@H](COC[C@H](O)CN2C(=O)Nc2ccc3c(c2)OCO3)O1)N1CCN(c2ccccc2)CC1 | inactive: 0.991
41 | C[C@H](CO)N1C[C@H](C)[C@H](CN(C)S(=O)(=O)c2cn(C)cn2)OCCCC[C@H](C)Oc2ccc(NC(=O)CCCN(C)C)cc2C1=O | inactive: 0.983
42 | CN1C(=O)c2cc(NC(=O)C3CCOCC3)ccc2OC[C@@H]2O[C@H](CC(=O)NCc3ccccc3F)CC[C@H]21 | inactive: 0.995

Row | SMILES | relative growth
43 | Cc1ccc(S(=O)(=O)N(C)C[C@@H]2OCCCC[C@H](C)Oc3ccc(NS(C)(=O)=O)cc3C(=O)N([C@H](C)CO)C[C@@H]2C)cc1 | inactive: 1.04
44 | Cc1ccc(C2(CN3CCN4C(=O)CN(C)C(=O)[C@H]4C3)CCNCC2)nc1 | inactive: 1.02
45 | C[C@@H]1CCCCO[C@H](CN(C)Cc2ccc(C(F)(F)F)cc2)[C@H](C)CN([C@@H](C)CO)C(=O)c2cc(NC(=O)C3CCCCC3)ccc2O1 | inactive: 0.98
46 | C[C@@H]1CN([C@H](C)CO)C(=O)c2cc(NC(=O)Nc3ccc(C(F)(F)F)cc3)ccc2O[C@@H](C)CCCCO[C@H]1CN(C)S(=O)(=O)c1cn(C)cn1 | inactive: 0.979
47 | O=C(OCc1ccco1)c1ccc(-c2ccc(Cl)cc2)s1 | inactive: 1.02
48 | C=C1c2cccc(O)c2C(=O)[C@@H]2C(=O)[C@]3(O)C(=O)[C@@H](C(N)=O)C(=O)[C@@H](N(C)C)[C@@H]3[C@@H](O)[C@H]12 | active: 0.0752
49 | COc1cc(CO)cc(I)c1O[C@H]1C=C(C(=O)NCCO)C[C@@H](NCc2ccccc2F)[C@@H]1O | inactive: 0.996
50 | N[C@@H](c1ccncc1)c1ccc(Cl)cc1 | inactive: 1
51 | CNC(=O)C[C@H]1CC[C@H]2[C@@H](COC[C@H](O)CN2C(=O)Nc2cccc(OC)c2)O1 | inactive: 0.954
52 | O=C(C[C@H]1CC[C@@H]2[C@H](COC[C@@H](O)CN2S(=O)(=O)c2ccc(Cl)cc2)O1)N[C@@H]1CCN(Cc2ccccc2)C1 | inactive: 0.98
53 | O=C(C[C@@H]1CC[C@H]2[C@@H](COC[C@H](O)CN2C(=O)c2ccncc2)O1)NC1CCC1 | inactive: 0.986
54 | COc1ccc(S(=O)(=O)Nc2ccc3c(c2)C(=O)N([C@H](C)CO)C[C@H](C)[C@H](CN(C)S(=O)(=O)c2c(C)noc2C)O3)cc1 | inactive: 0.99
55 | COc1ccccc1CNC(=O)C[C@@H]1C[C@@H]2c3cc(NC(=O)c4cccnc4)ccc3O[C@@H]2[C@H](CO)O1 | inactive: 0.963
56 | C[C@H](CO)N1C[C@H](C)[C@H](CN(C)Cc2ccc3c(c2)OCO3)OCCCC[C@H](C)Oc2ccc(NS(=O)(=O)c3cccs3)cc2C1=O | inactive: 1.02
57 | Cc1ccc(S(=O)(=O)Nc2ccc3c(c2)CC(=O)N([C@H](C)CO)C[C@@H](C)[C@@H](CN(C)S(=O)(=O)c2c(C)noc2C)O3)cc1 | inactive: 1.01
58 | COc1ccc(S(=O)(=O)Nc2ccc3c(c2)CC(=O)N([C@@H](C)CO)C[C@H](C)[C@H](CN(C)S(=O)(=O)c2ccc(OC)cc2)O3)cc1 | inactive: 0.999
59 | Nc1ccc(/C=C/c2ccccc2)cc1 | inactive: 0.999
60 | COc1ccc(NC(=O)N(C)C[C@@H]2OCCCC[C@@H](C)Oc3ccc(NC(=O)CCC(F)(F)F)cc3C(=O)N([C@H](C)CO)C[C@@H]2C)cc1 | inactive: 1.02
61 | O=C1O[C@H](c2ccccc2)[C@H](c2ccccc2)N2[C@H]1[C@@H](C(=O)O)[C@]1(C(=O)Nc3ccc(C#CC4(O)CCCCCC4)cc31)[C@H]2c1ccc(OCCO)cc1 | inactive: 0.983

Source: the supplement of paper PMC9446081
